# In PubChem BioAssay (NCI):
# Where “and” joins values, the source holds several entries; their conditions need not be identical. Equal values may be shown once.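 1) Cells in 96-well plates. 2) Compound, 48 h, 5 concentrations. 3) Linear interpolation between surrounding doses. 4) Unreached endpoint = highest concentration. GI50: concentration for 50% inhibition of growth. TGI denotes the concentration required for complete inhibition of growth.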 Peptide text beside a SMILES is read from it.
# Tested on: NCI-H322M lung
# Test: inhibition of tumour cell growth, NCI panel, 48 h
SMILES,TGI,GI50
CCOC(=O)/C(O)=C(/C(=O)OC)c1ccc(Cl)cc1,> 100 µM,
COc1ccc(COC2CC(OC)OC(C)C2OC(=O)c2ccccc2)cc1 (stereo unspecified),> 100 µM,
COC1=C(C)C(=O)c2c(cc3c(c2O)C(C)(CCC=C(C)C)C(C)O3)C1=O (stereo unspecified),35.1 µM,
CN(C)Cc1cc(N=Nc2ccc(Cl)cc2)cc(CN(C)C)c1O,27.9 µM,
COc1ccc(CC(=O)c2ccc(O)cc2O)cc1,> 100 µM,> 100 µM
COC(=O)C(CC1=C(O)Nc2ccccc2N1)/C(=N/NC(N)=O)C(=O)Nc1ccccc1C (stereo unspecified),> 100 µM,
CCOc1ccc(NC(=O)C(=O)C(C(=O)c2ccc3ccccc3c2)C2OC(=O)c3ccccc32)cc1 (stereo unspecified),67.6 µM,
Cn1cccc1-c1cc(-c2ccc(Br)cc2)[nH]c(=O)c1C#N,> 100 µM,> 100 µM
C=C1c2ccoc2C[C@H]2[C@H]1CC[C@@]1(O)[C@@](C)(C(=O)OC)CCC[C@]21C,> 100 µM,84.3 µM
COc1ccc(Cl)c(Nc2nc3ccccc3nc2NS(=O)(=O)c2cccc(NC(=O)C(C)(C)N)c2)c1,20.6 µM and > 10 µM,6.97 µM and 8.24 µM
N#Cc1c(-c2ccccc2)c(CN2CCCCC2)c(=O)n2c1[nH]c1ccccc12,> 100 µM,
CN(C)C(=O)c1ccc([N+](=O)[O-])cc1,> 100 µM,
Cc1nn(-c2ccc([N+](=O)[O-])cc2)c2ncnc(N/N=C/c3ccccc3O)c12,> 100 µM,0.23 µM
NC(=O)Nc1cc(-c2cccc(F)c2)sc1C(=O)N[C@H]1CCCNC1,1.87 µM and 1.33 µM,0.0886 µM and 0.225 µM
O=C(N/N=C/c1ccccc1)c1cccc2nc3ccccc3nc12,> 28.6 µM,
O=C(c1ccccc1)N1C(=S)N(c2ccccn2)C(=Nc2ccccc2)C1=Nc1ccccc1,> 100 µM,
CCN1C(=O)N(CC)C2C1NN=c1s/c(=C\c3ccccn3)c(=O)n12 (stereo unspecified),> 100 µM,4.58 µM
CCCN(CCC)C(=O)C(=O)c1c(N)[nH]n(-c2ccccc2)c1=O,> 100 µM,
CC1(C)[C@@H]2C[C@H]1c1cnc(-c3ccccn3)cc1C2CCCCC[C@@H]1c2cc(-c3ccccn3)ncc2[C@@H]2C[C@H]1C2(C)C (stereo partly specified),96.8 µM,
CC(C)C[C@H](NC(=O)[C@H](CC(C)C)NC(=O)[C@@H](Cc1c[nH]c2ccccc12)NC(=O)[C@H](Cc1ccccc1)NC(=O)[C@@H](Cc1c[nH]c2ccccc12)NC(=O)[C@H](CCC(N)=O)NC(=O)[C@H](CCC(N)=O)NC(=O)[C@H]1CCCN1C(=O)[C@@H](N)CCCCN)C(N)=O (HELM PEPTIDE1{K.[dP].Q.Q.[dW].F.[dW].L.L.[am]}$$$$V2.0),> 100 µM,
COc1ccc(N(/C=C/C(=O)C(F)(F)F)CC(=O)c2ccc(F)cc2)cc1,73 µM,26.5 µM
O1[As]2O[As]3O[As]1O[As](O2)O3,9.36 µM,2.88 µM
COc1ccc(/C=C(\C(=O)NCc2cccnc2)S(=O)(=O)c2ccccc2)cc1OC,12 µM,2.99 µM
CC1=C(CCC(C)NCc2ccc(OCCCN3CCCCC3)cc2)C(C)(C)CCC1 (stereo unspecified),4.63 µM,1.99 µM

SMILES,TGI,GI50
N#Cc1nc2c(S(=O)(=O)c3ccc(Cl)cc3)c(N)n(CCCN3CCOCC3)c2nc1C#N,> 100 µM,21.1 µM
CSc1nc2c(c(=O)[nH]1)N=C(c1ccccc1)CC(c1ccccc1)N2 (stereo unspecified),> 100 µM,
CNc1nc(C(N)=O)c(N)s1,> 100 µM,
Cc1[nH]c2ccc(F)cc2c1-c1nc2c3cccnc3c3ncccc3c2[nH]1,> 100 µM,0.271 µM
CN(C)c1ccc(C(=NO)c2ccc(N(C)C)cc2)cc1,> 100 µM,6.07 µM
Nc1nc(-c2ccco2)cc(-c2ccc(CO)o2)n1,> 100 µM,
CCOC(=O)c1nc2ccc(C(F)(F)F)cc2nc1Oc1ccc(C(=O)OC)cc1,> 100 µM,
CCN(CC)c1oc(N(CC)CC)c(C(=O)Nc2ccccn2)c(=O)c1C(C)=O,> 100 µM,
COC(=O)CC1c2ccccc2N2C(=O)Cc3c([nH]c4ccccc34)C12 (stereo unspecified),> 100 µM,
CCOC(=O)c1c(NC(=S)Nc2ccccc2)sc2c1CCOC2,> 100 µM,
Cc1cnc2[nH]c(-c3ccc4ccccc4c3)cc(=O)c2c1,> 100 µM,
CC(C)CCNCC(O)Cn1c2ccccc2c2ccccc21 (stereo unspecified),30.3 µM,15.5 µM
NCCN.O=C([O-])CN1CCOCC1.[OH-].[Pt+4],> 100 µM,> 100 µM
COC(=N)c1c(N)[n+]([O-])c2ccc(F)cc2[n+]1[O-],> 100 µM,> 100 µM
O=c1c(O)c(-c2ccc(O)c(O)c2)oc2cc(O)cc(O)c12,> 100 µM,13.2 µM
COC(=O)CCC(NC(=O)OC(C)(C)C)C(=O)NC(Cc1ccc(NC(=O)CCCC(C)=O)cc1)C(=O)NC(CCC(=O)OC)C(=O)OC (stereo unspecified),> 100 µM,
C[C@]12CC[C@@H]3c4ccc(O)cc4CC[C@H]3[C@@H]1Cc1cnc(N)nc12,41.1 µM,17.7 µM
Fc1ccc(C(OCCN2CC3CCC(C2)N3CCCc2ccccc2)c2ccc(F)cc2)cc1,22 µM,
CC(=O)Nc1cccc(N=NN(C)C)c1,> 100 µM,
Oc1c(Cl)c(Cl)c(O)c2c1CCCC2,31.4 µM,
CN(C)c1ccc(C=C2C(=O)NC(=S)NC2=O)c2ccccc12,> 100 µM,
O=C(CC(Cl)=C(Cl)Cl)c1ccccc1,> 100 µM,
CC[C@H](CO)Nc1nc(NCc2ccccc2)c2ncn(C(C)C)c2n1,> 100 µM,
